{"source": "PubChem BioAssay AID1461", "about": "(National Center for Advancing Translational Sciences (NCATS), 2008)", "note": "“And” between values parts separate entries of the source, which are not always exact repeats. Equal entries are not always repeated. Hit rate of the full screen: of about 220,000 compounds, about 2,300 (1%) were called active. Roughly 6% stayed inconclusive and do not appear here. Calls follow the shape of the dose curve; as a rule, active = well fitted inhibition curve with a large enough effect; inconclusive = small, poorly fitted or top-dose-only effect, or effect the other way; inactive = no such curve, though single readings can be large or run the other way. Only a part is listed here, and it is no random draw. % is scaled to controls: 0 for no effect and ±100 for the full control effect; potency is read from the fitted curve at half-maximal effect.", "data": [{"biological_target": "Neuropeptide S receptor (Homo sapiens) (UniProt Q6W5P4)", "sequence (Q6W5P4 whole entry, looked up)": "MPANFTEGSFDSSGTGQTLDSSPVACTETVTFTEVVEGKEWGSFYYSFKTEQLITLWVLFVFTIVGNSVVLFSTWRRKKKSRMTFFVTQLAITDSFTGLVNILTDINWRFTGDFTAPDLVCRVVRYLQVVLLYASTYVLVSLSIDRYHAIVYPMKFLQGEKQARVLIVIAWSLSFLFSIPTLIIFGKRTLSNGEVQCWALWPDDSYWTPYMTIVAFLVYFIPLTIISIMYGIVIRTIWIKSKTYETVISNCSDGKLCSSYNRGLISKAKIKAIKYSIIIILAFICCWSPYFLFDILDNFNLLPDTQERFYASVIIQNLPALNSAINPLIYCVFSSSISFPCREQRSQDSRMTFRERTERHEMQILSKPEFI", "assay": "qHTS Assay for Antagonists of the Neuropeptide S Receptor: cAMP Signal Transduction; also: nearly all actives have a fitted effect of over 50% in size", "details": "CHO-NPSR cells, cAMP TR-FRET, antagonist mode; series mostly up to 38.3 µM; activity change, negative = inhibition: at the top concentration", "excerpt": "NIH Chemical Genomics Center [NCGC] NIH Molecular Libraries Probe Production centers Network [MLPCN] MLPCN Grant: X01-DA026210-01 Assay Submitter (PI): Heilig, Markus Alexander NCGC Assay Overview: Neuropeptide S receptor (NPSR), previously known as GPR154, is a recently de-orphanized G protein coupled receptor. Its endogenous ligand is the 20 amino acids peptide Neuropeptide S (NPS). […] NPS and its receptor are found in various tissues. Specifically they are highly expressed in brain areas that have been implicated in modulation of arousal, stress and anxiety. Central administration of NPS in mice produces an unusual profile of activity by inducing wakefulness and arousal, while at the same time suppressing anxiety. Therefore, NPSR may represent a novel drug target for the treatment of sleep and anxiety disorders. To identify NPSR antagonists, we developed a cell-based cAMP assay. NPS can stimulate the production of cAMP in Chinese hamster ovary cells stably expressing NPS receptor. This change in intracellular cAMP level can be detected by a homogeneous LANCE cAMP assay based on the TR-FRET (time resolved fluorescence resonance energy transfer) between a europium-labeled cAMP tracer complex and a cAMP-specific antibody labeled with Alexa Fluor 647. The europium-labeled cAMP tracer complex is formed by the tight interaction between Biotin-cAMP (b-cAMP) and streptavidin labeled with Europium-W8044 chelate (Eu-SA). Light pulse at 320 nm excites the europium of the cAMP tracer and the energy emitted is transferred to the Alexa molecule bound to the cAMP antibody, generating a TR-FRET signal at 665 nm. Residual energy from the europium will produce a light at 620 nm. The native unlabeled cAMP from cell lysates competes with the europium-cAMP tracer for antibody binding and reversely reduces the emission signal of Alexa by interrupting FRET between the two labeled molecules. Both emission signals from the FRET donor (620 nm) and the acceptor (665 nm) can be detected by a plate reader in the TRF mode. Expression of result in fluorescence ratio (665 nm/620 nm) helps to normalize differences due to cell density and reagent dispensing. This assay was successfully optimized to a 1536-well plate format.\nNCGC Assay Protocol Summary: A Chinese hamster ovary (CHO) cell line stably expressing the NPS receptor (CHO-NPSR) was obtained from Dr. Heilig lab at NIAAA and maintained in F-12 Kaighn's media (Invitrogen, Carlsbad, CA, 21127) supplemented with 10 % FBS, 100 units/ml penicillin, 100 ug/ml streptomycin and 250 ug/ml geneticin at 37C, 5% CO2 in a humidified atmosphere. Before the assay, aliquots of cells were frozen and stored at -135C. The assay was performed in 1536-well format. Data are reported for both the ratio of the two emission wavelengths, and also for the component 'donor' channel, Em2=620. Data were normalized to the controls for basal activity (DMSO only) and 100% inhibition (No NPS control). IC50 values were determined from concentration-response data modeled with the standard Hill equation. NPS 1536-well assay protocol: (1) Fresh or frozen CHO-NPSR cells were suspended in F-12 Kaighn's media supplemented with 10 % FBS, 100 units/ml penicillin and 100 ug/ml streptomycin. Cells were plated at 4 ul/well (1200 cells) to white, tissue culture treated 1536-well plates, and then cultured at 37C, 5 % CO2 for 16 to 30 hours. (2) Add 23 nl/well of compound in DMSO solution. The final titration for each compound was between 0.6 nM and 46 uM. (3) Add 1 ul of stimulation reagent (1X HBSS buffer, 5 mM HEPES, 0.1% BSA, 500 uM RO-201724 (Sigma-Aldrich, B8279), 1.5% Alexa 647-labeled anti-cAMP antibody (from Perkin Elmer), 100 nM NPS) (4) Incubation at 37C, 5 % CO2 for 60 min. (5) Add 1 ul/well detection reagent. Detection reagent was prepared by adding biotin labeled cAMP (4%), streptavidin labeled with Europium-W8044 chelate (1.33%) and TritonX-100 (1%) to detection buffer. […]", "values": [{"smiles": "C[N+]1=C(/C=C/Nc2ccccc2)C(C)(C)c2ccccc21", "activity change, negative = inhibition": "inactive: 4.33% [at 46.1 µM]"}, {"smiles": "O=C1NC(=O)N(Cc2ccccc2)C(=O)/C1=C\\C=C\\c1ccco1", "activity change, negative = inhibition": "inactive: -29.6%"}, {"smiles": "C=CCN1CC[C@@]2(C)c3cc(O)ccc3CC1[C@@H]2C", "activity change, negative = inhibition": "inactive: 19.9%"}, {"smiles": "C[C@]12CCC(=O)C=C1CC[C@@H]1[C@@H]2CC[C@]2(C)C(=O)CC[C@@H]12", "activity change, negative = inhibition": "inactive: -33.1%"}, {"smiles": "O=c1[nH]c2ccccc2n1C1CCN(CCCC(c2ccc(F)cc2)c2ccc(F)cc2)CC1", "Potency": "active: 12.6 µM and active: 6.31 µM"}, {"smiles": "CN[C@H](C)[C@H](O)c1ccccc1", "activity change, negative = inhibition": "inactive: 8.86%"}, {"smiles": "CNCCCN1c2ccccc2CCc2ccccc21", "activity change, negative = inhibition": "inactive: -42.7%"}, {"smiles": "COC(=O)N1CCN(C(=O)Cc2ccc(Cl)c(Cl)c2)C(CN2CCCC2)C1", "note": "(centres undefined)", "activity change, negative = inhibition": "inactive: -7.57%"}, {"smiles": "O=C(O)c1nn(Cc2ccc(Cl)cc2Cl)c2ccccc12", "activity change, negative = inhibition": "inactive: -23.5%"}, {"smiles": "CC[C@@H](CO)NC(=O)[C@@H]1C=C2c3cccc4c3c(cn4C)C[C@H]2N(C)C1", "Potency": "inactive"}, {"smiles": "c1ccc2c(c1)OCC(C1=NCCN1)O2", "note": "(centres undefined)", "activity change, negative = inhibition": "inactive: 16.5%"}, {"smiles": "OCc1cnc[nH]1", "activity change, negative = inhibition": "inactive: -6.7%"}, {"smiles": "CC(=O)[C@H]1CC[C@H]2[C@@H]3CCC4=CC(=O)CC[C@]4(C)[C@H]3CC[C@]12C", "Potency": "inactive"}, {"smiles": "CC(=O)N1CCN(c2ccc(OC[C@H]3CO[C@](Cn4ccnc4)(c4ccc(Cl)cc4Cl)O3)cc2)CC1", "Potency": "inactive"}, {"smiles": "COc1ccc2[nH]cc(CCN)c2c1", "activity change, negative = inhibition": "inactive: 5.01%"}, {"smiles": "CN(C)C(=O)C(CCN1CCC(O)(c2ccc(Cl)cc2)CC1)(c1ccccc1)c1ccccc1", "activity change, negative = inhibition": "inactive: -20.3%"}, {"smiles": "Cc1cc(C)cc(N2C(=O)NC(=O)/C(=C\\c3cccn3-c3ccc(Cl)cc3)C2=O)c1", "Potency": "active: 5.01 µM"}, {"smiles": "COc1ccc(CNC(=O)/C=C/c2ccc3[nH]cc(CCN(C)C)c3c2)cc1", "activity change, negative = inhibition": "inactive: 9.07%"}, {"smiles": "CC(Cc1ccc(O)cc1)NCC(O)c1cc(O)cc(O)c1", "note": "(centres undefined)", "activity change, negative = inhibition": "inactive: 5.8%"}, {"smiles": "CC[C@]12C=CCN3CCC4(c5cc(Br)c(OC)cc5N(C)C4[C@@](O)(C(=O)OC)[C@@H]1OC(C)=O)C32", "note": "(some centres undefined)", "activity change, negative = inhibition": "inactive: -31.8%"}, {"smiles": "O=C1NC(=O)N(CCc2ccc(F)cc2)C(=O)/C1=C\\C=C\\c1ccccc1", "activity change, negative = inhibition": "inactive: -58.8%"}, {"smiles": "COc1cc([C@@H]2c3cc4c(cc3[C@H](O)[C@H]3COC(=O)[C@H]23)OCO4)cc(OC)c1OC", "activity change, negative = inhibition": "inactive: -1.95%"}, {"smiles": "NC(N)=N/N=C/c1c(Cl)cccc1Cl", "Potency": "inactive"}, {"smiles": "Cc1c2ccncc2c(C)c2c1[nH]c1ccccc12", "activity change, negative = inhibition": "inactive: -55.3%"}, {"smiles": "C=CCN1CCC2(C)c3cc(O)ccc3CC1C2C", "note": "(centres undefined)", "activity change, negative = inhibition": "inactive: -6.35% [at 46.1 µM]"}, {"smiles": "O=C1NC(=O)N(c2ccccc2)C(=O)/C1=C\\c1ccc([N+](=O)[O-])s1", "activity change, negative = inhibition": "inactive: -5.48%"}, {"smiles": "O=[N+]([O-])c1ccc(C2[C@H]3C(c4ccccc4)=NC4(CCCCC4)N23)cc1", "note": "(some centres undefined)", "activity change, negative = inhibition": "inactive: -25.9% [at 46.1 µM]"}, {"smiles": "Oc1ccc2c3c1O[C@H]1c4[nH]c5ccccc5c4C[C@@]4(O)C(C2)N(CC2CC2)CC[C@]314", "activity change, negative = inhibition": "inactive: -7.57%"}, {"smiles": "Cc1ccc(C(=O)N[C@@H](C)CN2C3=NC[C@@H](Cc4ccccc4)N3C[C@H]2Cc2ccc(O)cc2)cc1Br", "activity change, negative = inhibition": "inactive: 31.1%"}]}]}
